In one series the target is T1, BCMA on H929 cells (Homo sapiens, UniProt Q02223, N81S).
T1 construct: host or cells: H929
T1 sequence (Q02223 1-184 N81S): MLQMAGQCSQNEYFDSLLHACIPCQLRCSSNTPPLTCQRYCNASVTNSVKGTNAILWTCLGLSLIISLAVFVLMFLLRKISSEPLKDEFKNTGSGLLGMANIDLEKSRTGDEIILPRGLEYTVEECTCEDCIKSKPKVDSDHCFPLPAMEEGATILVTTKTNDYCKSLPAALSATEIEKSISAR
Description: FACS binding to native BCMA on H929 myeloma cells. The following applies: flow cytometry. The method, then: Approximately 10 to 40×10^6 of H929 myeloma cells were resuspended in a staining solution (2% goat serum, 1% rabbit serum, 0.02% azide in PBS) and aliquoted into round-bottom, 96-well plate (Corning Incorp., Acton, Mass.) as per the experiment design. The cells were incubated at 4 degrees celsius for 30 minutes to block non-specific sites. The antibodies were titrated into the staining solution. The cells were rinsed in a rinse solution (PBS+0.02% azide) by resuspending the cells in 200 ul/well. The cells were centrifuged at 1500 rpm at 4 degrees celsius for 7 minutes. The rinse solution was removed and the rinse step was repeated. […] The cells/antibodies were rinsed as described above to remove excess/unbound antibody. After the last rinse, the cells were resuspended in 200 ul of rinse solution with a drop of staining solution added to keep the cells from aggregating.
The antibodies were tested for binding to BCMA endogenously-expressed on a variety of cells, including the H929 cell line, which were developed from B-lymphocytes from a myeloma/plasmacytoma patient (ATCC, Manassa, Va.) using standard FACs techniques. Reagents were prepared using standard methods: 500 mL FACs buffer (PBS, 1% BSA, 5 mM EDTA, 0.02% NaN3), and FACs Block Buffer (30 mL FACs buffer, 5% Normal Rabbit Serum, 5% Normal Human Serum). […] The cell volumes were adjusted to bring all volumes up to 1 mL/tube w/ FACs buffer. The cells were centrifuged at 4° C. for 10 minutes at 1200 rpm. The supernatants were removed and the cell pellets were resuspended in 100 uL of FACs Block Buffer per tube. The cells were incubated for 30 to 60 minutes on ice. The BCMA antibodies were prepared by making premixes of 1:3 serial dilutions of antibodies in FACS Block Buffer starting at 10 ug/ml antibody (for example) in a final volume of 100 ul. The blocked cells were centrifuged at 4° C. for 10 minutes at 1200 rpm. The supernatants were removed and the cell pellets were resuspended in 100 uL of FACs Block Buffer containing the BCMA antibodies. The cells were incubated for 60 minutes on ice. After incubation, 1 mL of cold FACs Block Buffer was added to each tube. The cells were centrifuged at 4° C. for 10 minutes at 1200 rpm. […] After incubation, 1 mL of cold FACs Block Buffer was added to each tube. The cells were centrifuged at 4° C. for 10 minutes at 1200 rpm. […] After incubation, 1 mL of cold FACs Block Buffer was added to each tube. The cells were centrifuged at 4° C. for 10 minutes at 1200 rpm. The supernatants were removed and the cell pellets were resuspended in 0.2 mL/tube 4% paraformaldehyde in PBS and analyzed by flow cytometry
On the technique in general: Flow cytometry measures light scatter and fluorescence of single cells or particles in a stream.

Series [1] can be described thus: Differential Scanning Calorimetry (DSC) thermostability. In kind it is physicochemical. The text has this: Differential Scanning calorimetry (DSC) was used to compare the thermostability of parent and engineered antibodies. DSC is a thermodynamical tool for direct assessment of the heat energy uptake, which occurs in a sample within a regulated increase or decrease in temperature. DSC is commonly employed to assess the thermal and conformational stability of a protein. The melting temperature of a protein, or of individual domains, can be obtained from the DSC profile, and if the reaction is reversible the thermodynamic parameters of the unfolding can be determined. A protein is considered more thermostable when the Tm (transition temperature) is higher. When thermostability data are compared to other bioanalytical methods, like size exclusion chromatography (SEC), it has been observed that a correlation between greater thermostability (higher Tm) and decreased aggregation. Antibodies with a higher Tm and decreased aggregation formation have the potential for improved long-term stability thus potentially making better biotherapeutics.
DSC was carried out using a MicroCal™ VP-Capillary DSC system (GE Healthcare, Piscataway, N.J.) equipped with an auto-sampler. The temperature differences between the reference and sample cells are continuously measured, and calibrated to power units. For example, the full-length antibodies shown in TABLE 10 were diluted to 0.5 mg/mL in a buffered solution. The solution reference and protein samples were measured in a 135 μL cell from 20 to 110° C. at a heating rate of 60° C./hour. The pre-scan was set at 15 minutes while the filtering period was 10 seconds. Signal from the blank buffer solution was used for baseline subtraction. The data analysis was performed using MicroCal™ Origin 7 software. Heat capacity during protein melting was calculated by normalizing over protein concentration.

Residue numbers refer to the chain shown, from its start. Names may count otherwise.

B1: Ab-19: 2A1 mutein C107T, heavy chain SEQ ID NO:289, light chain SEQ ID NO:288 (antibody)
heavy: EVQLVESGGGLVKPGRSLRLSCTASGFTFGDYALSWFRQAPGKGLEWVGVSRSKAYGGTTDYAASVKGRFTISRDDSKSFAYLQMNSLKTEDTAVYYCTSSGYSSGWTPFDYWGQGTLVTVSS[omitted - human IgG1 constant region]
light: QSVLTQPPSASGTPGQRVTISCSGSSSNIGSNTVNWYQQLPGTAPKLLIFNYHQRPSGVPDRFSGSKSGSSASLAISGLQSEDEADYYCAAWDDSLNGWVFGGGTELTVLGQPKAAPSVTLFPPSSEELQANKATLVCLISDFYPGAVTVAWKADSSPVKAGVETTTPSKQSNNKYAASSYLSLTPEQWKSHRSYSCQVTHEGSTVEKTVAPTECS
On to B1, for which the “binding to BCMA on H929 cells relative to parental 2A1” value in the series with BCMA on H929 cells is “comparable binding”. For the same molecule, in series [1], the Tm1 was found to be 64.8 °C, the Tm2 was 76.1 °C and the Tm3 worked out at 83.3 °C.

B2: Ab-26: 2A1 mutein, heavy chain SEQ ID NO:296, light chain SEQ ID NO:288 (antibody)
heavy: B1 heavy with F37V, F80T
light: B1 light
For the molecule B2, the “binding to BCMA on H929 cells relative to parental 2A1” value in the series with BCMA on H929 cells was “reduced binding”.

B3: Ab-25: 2A1 mutein, heavy chain SEQ ID NO:295, light chain SEQ ID NO:288 (antibody)
heavy: B1 heavy with S100K
light: B1 light
Consider B3, for which, in series [1], the Tm1 amounted to 65.7 °C, the Tm2 came out at 76.2 °C and the Tm3 turned out to be 83.2 °C.

B4: Ab-23: 2A1 mutein, heavy chain SEQ ID NO:293, light chain SEQ ID NO:288 (antibody)
heavy: B1 heavy with F80T
light: B1 light
Take B4: in series [1], the Tm1 came to 68.4 °C, the Tm2 came to 76.2 °C and the Tm3 came to 83.7 °C.

B5: Ab-27: 2A1 mutein, heavy chain SEQ ID NO:297, light chain SEQ ID NO:288 (antibody)
heavy: B1 heavy with F37V, T99A
light: B1 light
Turning to B5, the “binding to BCMA on H929 cells relative to parental 2A1” value in the series with BCMA on H929 cells is on record as “reduced binding”.

B6: Ab-22: 2A1 mutein, heavy chain SEQ ID NO:292, light chain SEQ ID NO:288 (antibody)
heavy: B1 heavy with D76N
light: B1 light
In the case of B6, in series [1], the Tm1 amounted to 68.6 °C and the Tm3 was found to be 83.6 °C.

B7: 2A1 S108R: 2A1 mutein S108R (antibody)
heavy: B1 heavy with T99C, S100R
light: B1 light
For B7, the “binding to BCMA on H929 cells relative to parental 2A1” value with BCMA on H929 cells was “comparable binding”.

B8: Ab-24: 2A1 mutein, heavy chain SEQ ID NO:294, light chain SEQ ID NO:288 (antibody)
heavy: B1 heavy with T99A
light: B1 light
B8: in series [1], the Tm1 came to 69.4 °C and the Tm3 stood at 84.3 °C.

B9: Ab-32: 2A1 mutein, heavy chain SEQ ID NO:302, light chain SEQ ID NO:288 (antibody)
heavy: B1 heavy with T23A, F37V, F80T, T99A
light: B1 light
In the case of B9, in series [1], the Tm1 was 67.9 °C, the Tm2 came to 76.2 °C and the Tm3 came to 83.8 °C.

B10: Ab-21: 2A1 mutein, heavy chain SEQ ID NO:291, light chain SEQ ID NO:288 (antibody)
heavy: B1 heavy with F37V
light: B1 light
Turning to B10, the “binding to BCMA on H929 cells relative to parental 2A1” value with BCMA on H929 cells is listed as “reduced binding”.

B11: Ab-31: 2A1 mutein, heavy chain SEQ ID NO:301, light chain SEQ ID NO:288 (antibody)
heavy: B1 heavy with F37V, F80T, T99A
light: B1 light
As for B11, in series [1], the Tm1 is 73.2 °C and the Tm3 amounted to 83.7 °C.

B12: Ab-28: 2A1 mutein, heavy chain SEQ ID NO:298, light chain SEQ ID NO:288 (antibody)
heavy: B1 heavy with T23A, F80T
light: B1 light
With B12, in series [1], the Tm1 was determined as 70.8 °C and the Tm3 came out at 83.7 °C.

(Values after US10220090B2, “BCMA Antigen binding proteins” (Amgen Inc., priority 2012, dated 2019).)
